In the supplement of paper PMC3334620:
Over roughly 33,000 sequences, “E-score (-0.5 to 0.5)” has its median near -0.032; the highest 2% begin near 0.36. This is one part of the list.

molecular target: T1, Sko1 (UniProt Q02100); test: PBM E-score (8-mer binding enrichment) (E-score (-0.5 to 0.5)); higher = stronger / more preferred TF binding; most listed sequences are background and not binding sites; conditions: protein concentration: 200 nM; construct: GST-full length
T1 sequence: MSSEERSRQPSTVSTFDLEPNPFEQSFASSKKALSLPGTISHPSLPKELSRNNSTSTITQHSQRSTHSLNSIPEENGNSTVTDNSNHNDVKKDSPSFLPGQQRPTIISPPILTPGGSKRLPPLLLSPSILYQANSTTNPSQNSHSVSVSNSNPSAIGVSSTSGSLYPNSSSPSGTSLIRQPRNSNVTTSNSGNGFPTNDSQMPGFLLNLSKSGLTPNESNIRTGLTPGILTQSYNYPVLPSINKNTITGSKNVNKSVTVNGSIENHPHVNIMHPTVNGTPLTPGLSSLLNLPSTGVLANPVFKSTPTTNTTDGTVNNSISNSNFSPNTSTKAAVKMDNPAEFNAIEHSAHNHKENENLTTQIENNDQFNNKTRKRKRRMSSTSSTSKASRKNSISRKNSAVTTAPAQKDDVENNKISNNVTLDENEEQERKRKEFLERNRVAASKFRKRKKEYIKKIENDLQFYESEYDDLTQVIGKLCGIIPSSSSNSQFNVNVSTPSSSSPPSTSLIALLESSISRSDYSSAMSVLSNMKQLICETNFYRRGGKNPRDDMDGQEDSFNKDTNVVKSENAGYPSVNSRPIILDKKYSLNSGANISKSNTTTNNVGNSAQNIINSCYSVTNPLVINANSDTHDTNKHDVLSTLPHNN
Outline: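 E-scores (a modified Wilcoxon-Mann-Whitney statistic) were assigned by the Universal PBM Analysis Suite to every ungapped eight-base word pooled with its reverse complement. The input came from universal all-10-mer Agilent arrays made double-stranded by primer extension and probed with GST-tagged yeast transcription factors at about 100-200 nM. Fluorescent anti-GST detected bound protein, and masliner normalised the scans.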

In order of falling “PBM E-score” value:
1. TATGACGA  0.475
2. GTAATTTA  0.366
3. ATTGTTAC  0.362
4. CATGTACG  0.303
5. AAAAGACG  0.302
6. CGTAGATC  0.3
7. ACGAATTA  0.297
8. AGACGTCC  0.281
9. ACGAAACG  0.281
10. AACGTGGT  0.261
11. ACGTCTGC  0.26
12. ATCTAATA  0.248
13. ACATTTTA  0.243
14. GTATCGTA  0.238
15. ATGTATGC  0.212
16. TATTGTGA  0.183
17. ACTCAATA  0.18
18. CTACTCAC  0.168
19. CGTTTTAA  0.167
20. AATCCTAT  0.164
21. ATGCTAGC  0.153
22. GCGTTCGA  0.144
23. TAAGTCAA  0.143
24. ATTATCTC  0.136
25. AAAATGGA  0.136
26. AGCTTATG  0.133
27. ACCTGAAT  0.131
28. ATCTGAAA  0.128
29. ACATAGTG  0.12
30. ACTAGACA  0.119
31. AAACCACA  0.118
32. ATGAAGAA  0.117
33. CTAACTCA  0.117
34. GAGTATAA  0.115
35. GCTCATAC  0.114
36. AAAACGAC  0.113
37. CGCTCGAA  0.112
38. AGTACTGA  0.109
39. ATGGTTTC  0.108
40. AAAGTGAA  0.106
41. ATCGAACA  0.104
42. CGTCCTAG  0.102
43. CAACACGA  0.102
44. CCTTAAAA  0.101
45. AGTGGTAC  0.0946
46. AGCTCGCG  0.0911
47. AATCAGTC  0.0904
48. GAATCGAA  0.0875
49. ACGTTCCG  0.0867
50. AGCCCAAA  0.0865
51. TAAGGAAA  0.0795
52. AAGCAAGA  0.0771
53. CCAAAAAC  0.075
54. AACGCAAG  0.0717
55. CTTATAGA  0.0676
56. CACTCAAC  0.0667
57. GACATCTA  0.0663
58. TAGATAAA  0.0662
59. AACGGTTG  0.0655
60. CCGTACGC  0.0653
61. GCGCGGAC  0.0624
62. AAACTCAA  0.0607
63. GCCTACGA  0.0583
64. ACCATTGA  0.0435
65. CGAATAAG  0.0312
66. AAAGACTA  0.026
67. ATTCACTG  0.0188
68. ACAAGTTA  0.0177
69. AGTTGTGC  0.0174
70. CCAATTGG  0.0158
71. GGCGCAAA  0.0135
72. ATCAAGCA  0.00175
73. GACAAGTA  -0.00194
74. CTAATGGC  -0.00306
75. CCGTTTTA  -0.00533
76. GCAATAAC  -0.00651
77. ATCCCCAT  -0.012
78. CACATTCA  -0.0156
79. CCCCATCA  -0.0157
80. ATGATCCG  -0.017
81. CGGTTCGA  -0.0173
82. TCCCTAAA  -0.0242
83. AAGTGACT  -0.0253
84. ACGCCGAG  -0.0268
85. CTTCAAAA  -0.0291
86. CGTGGGTC  -0.0366
87. AGAATAGG  -0.0397
88. CTAGATTC  -0.042
89. GACAATCC  -0.0455
90. GAGTCGGA  -0.0478
91. CCATCGGG  -0.0494
92. AACCCGAC  -0.0528
93. AGAGGATA  -0.0582
94. CGAAGCGA  -0.0592
95. ACAAACCG  -0.0685
96. GAAAGCCC  -0.0691
97. AGATCTCG  -0.0715
98. CCCACAAC  -0.0731
99. CAATCTCC  -0.0733
100. AGCTTCGC  -0.0742
101. AGCGTGCA  -0.0757
102. GATACTGC  -0.0769
103. ACTCCACA  -0.0789
104. CCGATTCC  -0.0807
105. AAAACTCT  -0.0843
106. CCATCAGC  -0.0853
107. ACTATCAG  -0.0859
108. GGTGGATA  -0.0862
109. CACTCGCA  -0.0873
110. GAATTCTC  -0.0901
111. GACTAACC  -0.0958
112. CCTGGTGA  -0.0993
113. CGGATGGC  -0.1
114. CCCAATCC  -0.111
115. GGAGACAA  -0.112
116. CAAAGGTG  -0.113
117. AGGACGCG  -0.115
118. ATTCGGGC  -0.121
119. ACCACGCC  -0.125
120. ATACTGGC  -0.127
121. CAGTAGAG  -0.128
122. ATGTTTCC  -0.135
123. AGACGGAA  -0.136
124. CTGCGGTC  -0.144
125. AGTCTATG  -0.148
126. CAGACCGC  -0.156
127. CAGTCAGC  -0.159
128. GGTGCAAC  -0.161
129. ATGCAGCG  -0.168
130. CTTTCCTC  -0.169
131. AGAGCTTC  -0.17
132. GATCCACC  -0.176
133. AAGCCGGT  -0.179
134. CTGGCAAG  -0.18
135. GCTGCTTA  -0.182
136. AGAGGGAC  -0.19
137. CAATTGGA  -0.191
138. CCAGTATA  -0.193
139. ATCCATAG  -0.198
140. CACGACCG  -0.199
141. TCGACCGA  -0.21
142. AGGTGCAG  -0.224
143. ACAGCAGT  -0.233
144. CAAGTCCA  -0.235
145. CGGTGGGA  -0.24
146. ATAGGCCA  -0.24
147. CCCGCCAA  -0.241
148. CCTGCCAG  -0.251
149. CGGGCGGC  -0.252
150. ACCAAAGG  -0.256
151. AGAGCCGG  -0.265
152. CCCAATGC  -0.269
153. CAGCTATC  -0.272
154. AGGTCCTG  -0.272
155. GCTGTGCA  -0.273
156. CAACCCCC  -0.273
157. GCGACCCA  -0.283
158. GTTCCGGA  -0.284
159. CCAGGTTC  -0.285
160. AGAGCCCA  -0.289
161. GGCTGGTA  -0.299
162. CGGCCCGA  -0.303
163. CCCTGTAG  -0.306
164. GGCCAGCA  -0.328
165. GCGGGAGC  -0.331
166. CAAGGGAG  -0.339
167. CACCGGGG  -0.342
168. GGCAGGCC  -0.345
169. CCCTGGTC  -0.38
170. ACCGGGCG  -0.393
171. GCCAGAGC  -0.4
172. CCCCCCGC  -0.414
